# Measured values from PubChem BioAssay AID488969 (Vanderbilt High Throughput Screening Facility, 2010).
# Whole data set: some 110,000 compounds, median “z-score” near -0.1, cut for the highest 2% near 2. Some of the results follow. The source made the active and inactive calls.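 How the source made its calls: active means z-score in the third read window above 3 or below -3; inactive means the rest.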
# Biological target: Metabotropic glutamate receptor 8 (Rattus norvegicus) (UniProt P70579)
# Experiment: rat mGluR8 modulators via GIRK flux, primary screen, cell-based, thallium flux, HTS (AID 488969)
# Settings: HEK293 rat mGluR8, GIRK (G protein-gated inwardly rectifying potassium channel) thallium flux, FluoZin2; at 10 µM; stronger effect = higher value; submaximal glutamate (EC20) added with thallium
# Chain of UniProt P70579 (P70579 whole entry, looked up): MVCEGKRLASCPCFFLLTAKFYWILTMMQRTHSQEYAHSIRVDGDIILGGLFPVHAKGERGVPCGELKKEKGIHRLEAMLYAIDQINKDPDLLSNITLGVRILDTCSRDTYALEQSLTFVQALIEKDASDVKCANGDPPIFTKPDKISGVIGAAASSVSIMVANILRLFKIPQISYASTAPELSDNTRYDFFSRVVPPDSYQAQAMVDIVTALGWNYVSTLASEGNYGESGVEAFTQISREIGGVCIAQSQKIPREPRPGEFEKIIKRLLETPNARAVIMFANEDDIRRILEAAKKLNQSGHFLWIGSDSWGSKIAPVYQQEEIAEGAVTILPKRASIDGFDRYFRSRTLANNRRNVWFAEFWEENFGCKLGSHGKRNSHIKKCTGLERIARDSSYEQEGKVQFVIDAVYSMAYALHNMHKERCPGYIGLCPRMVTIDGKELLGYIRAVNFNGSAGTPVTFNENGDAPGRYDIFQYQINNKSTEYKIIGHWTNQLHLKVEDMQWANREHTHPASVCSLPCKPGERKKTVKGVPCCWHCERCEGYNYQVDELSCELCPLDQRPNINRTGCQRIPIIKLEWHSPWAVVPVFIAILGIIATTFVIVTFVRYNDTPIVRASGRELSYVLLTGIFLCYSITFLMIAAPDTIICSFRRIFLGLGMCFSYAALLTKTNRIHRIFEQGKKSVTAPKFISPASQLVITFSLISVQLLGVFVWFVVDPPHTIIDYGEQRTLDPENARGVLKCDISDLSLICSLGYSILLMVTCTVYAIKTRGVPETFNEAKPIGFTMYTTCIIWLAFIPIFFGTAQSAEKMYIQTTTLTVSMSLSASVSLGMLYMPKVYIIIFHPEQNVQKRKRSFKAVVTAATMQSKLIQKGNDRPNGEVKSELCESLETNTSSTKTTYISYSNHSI
row,SMILES,z-score
1,COc1ccc(-n2c(SC(C)C(=O)Nc3ncc(Cl)cc3Cl)nc3ccccc32)cc1 (configuration not stated),-0.385
2,Cc1ccc(NC(=O)N2CCC(C(=O)NCc3ccc(F)cc3)CC2)cc1,2.21
3,CC(NC(=O)c1ccco1)C(=O)N1CCc2ccccc2C1 (configuration not stated),-0.17
4,O=C(Nc1nnc(-c2ccccn2)o1)c1ccc(Br)cc1,2.32
5,CCOc1ccc(-c2nnc3sc(-c4ccccc4OC)nn23)cc1,0.597
6,COc1ccc(OC)c(NC(=O)COC(=O)CNC(=O)c2ccc(OC)c(OC)c2)c1,-0.0746
7,COc1ccc2c(=O)c3c(=O)n(Cc4ccco4)c(-c4cc(OC)c(OC)c(OC)c4)nc3oc2c1,-0.406
8,CCN(CC)C(=O)CSC1c2ccccc2C(=O)N1c1ccccc1 (configuration not stated),0.17
9,CCOC(=O)CSc1nnc2c(n1)C1(C)CCC2C1(C)C (configuration not stated),0.477
10,Clc1ccc(-c2cn3cccnc3n2)cc1Cl,-0.72
11,CCC(=O)N1CCc2cc(S(=O)(=O)NC(Cc3ccccc3)C(=O)NC3CCCCC3C)ccc21 (configuration not stated),-0.218
12,Cc1ccc(C(=O)N(Cc2ccc3c(c2)OCO3)Cc2nc3ccccc3c(=O)[nH]2)cc1,0.705
13,Cc1ccccc1NC(=O)Cn1nc(C(F)(F)F)cc1C1CC1,0.0627
14,COc1ccc(CCn2c(N)cc(=O)[nH]c2=S)cc1OC,0.151
15,O=C(N/N=C/c1cccc([N+](=O)[O-])c1)C1CC(=O)N(c2ccc(Br)cc2)C1 (configuration not stated),-0.256
16,CCN1CCN(C(=O)CN(c2ccccc2C)S(C)(=O)=O)CC1,-0.338
17,CCOC(=O)N1CCN(C(=S)Nc2cccc(C)c2C)CC1,-0.146
18,Cc1cc(C)n(S(=O)(=O)/C=C/c2ccccc2)n1,-0.135
19,O=C(COc1ccccc1)Nn1c(-c2ccccc2)nc2ccccc2c1=O,0.42
20,Cc1cc(C(=O)CSc2nc3ccc(Cl)cc3[nH]2)c(C)n1C,0.451
21,O=C(/C=C/c1ccc(Cl)cc1)NC(=S)Nc1ccc(N2CCOCC2)c(Cl)c1,-0.506
22,COCCn1nnnc1C(c1ccccn1)N1CCN(c2cccc(C)c2C)CC1 (configuration not stated),-0.423
23,CC1(C)CC(=O)C2=C(C1)N=C1SCCC(=O)N1C2c1ccccc1 (configuration not stated),0.861

row,SMILES,z-score
1,COc1ccc(C(=O)Nc2cccc(C(C)=O)c2)c(OC)c1OC,-0.26
2,Cc1ccc([N+](=O)[O-])cc1S(=O)(=O)NCCc1c(C)[nH]c2c(C)cccc12,-0.135
3,NC(=O)N/N=C/c1c(F)cccc1F,-0.119
4,CC12CC(NC(=O)N1c1cccc(C(=O)N3CCN(c4ccccc4F)CC3)c1)c1ccccc1O2 (configuration not stated),0.94
5,CC1=NCC(C)c2c1[nH]c1ccccc21 (configuration not stated),-0.575
6,CC(Oc1ccccc1Cl)C(=O)N1CCOCC1 (configuration not stated),-0.228
7,CC(C)(C)NC(=O)NC(=O)CSc1nnc2ccccn12,0.0805
8,CCCNC(=O)C12CCC(C)(C(=O)C1Br)C2(C)C (configuration not stated),-0.133
9,Cc1nn(Cc2ccccc2)c(C)c1NC(=O)CCCn1nc(C)c([N+](=O)[O-])c1C,-0.199
10,Cc1nc2c(-c3ccc(F)cc3)c(C)nn2c(C)c1CCC(=O)N1CCC(Cc2ccccc2)CC1,-0.504
11,COc1ccc(NC(=O)c2ccc3c(=O)n(Cc4ccco4)c(=S)[nH]c3c2)c(OC)c1,1.5
12,O=C(NCCCN1CCCCC1)c1ccc2c(c1)NC(=O)C(N1CCOCC1)S2 (configuration not stated),0.108
13,COc1ccc(/C(O)=C2\C(=O)C(=O)N(Cc3ccco3)C2c2ccc(OC)cc2OC)cc1 (configuration not stated),-0.418
14,CCN1C(=O)C(CC(=O)NCc2ccc(Cl)cc2)N(CC)C1=O (configuration not stated),-0.0134
15,CCC(C)(C)NC(=O)CC(c1ccc(OC)cc1)n1cccc1 (configuration not stated),0.0297
16,Cc1ccc(C(C)C)c(OCCNC(=O)c2cncc(Br)c2)c1,0.9
17,O=C(NCCN1CCCCC1)c1ccc(=O)oc1,-0.572
18,O=C(Cn1cncc1-c1ccc([N+](=O)[O-])cc1)Nc1cccc2ccccc12,-0.199
19,CCOC(=O)c1c(C=O)c(C)n(Cc2ccccc2)c1C,-0.461
20,COc1ccccc1NC(=O)C1=C(C)N(c2ccccc2)C(=S)NC1c1cccc(C(F)(F)F)c1 (configuration not stated),-0.126
21,COC(=O)Cn1c(C(F)(F)F)nc2ccccc21,-0.0297
22,Cc1ccc(NC(=O)CN2CCN(c3ccccn3)CC2)c(Cl)c1,0.0751
23,Brc1cc2c(cc1/C=N/Nc1nc3ccccc3s1)OCO2,-0.128

row,SMILES,z-score
1,CCSc1nnc(Nc2ccccc2)s1,0.582
2,O=C(Nc1nnc(SCC(=O)N2CCCc3ccccc32)s1)c1cccc2ccccc12,-0.294
3,CCCCC1C(C#N)=C(C)NC2=C1C(=O)CC(C)(C)C2 (configuration not stated),-0.248
4,NS(=O)(=O)c1ccc(N/C=C/C(=O)c2ccc(Br)cc2)cc1,-0.0668
5,CC(=O)c1c(C)n(CC(=O)NCc2ccc3c(c2)OCO3)c2ccccc12,0.0406
6,CN(C)c1nc2c(c(N)nn2-c2ccc(Cl)cc2)c(=O)o1,0.013
7,S=c1[nH]nc(-c2ccco2)n1/N=C/c1ccc(Br)s1,active: 4.39
8,COc1ccccc1Cc1noc(-c2cc(Cl)ccc2OC)n1,-0.104
9,S=C(N/N=C/c1ccc(Cl)cc1)N1CCOCC1,active: 11.9
10,CCn1c(SCc2ccc(C(=O)OC)o2)nnc1-c1c[nH]c2ccccc12,-0.0117
11,CCOc1cc(S(=O)(=O)Nc2cc(C)cc(C)c2)ccc1Cl,-0.0728
12,OC(COc1ccccc1)CN1CCN(c2ncccn2)CC1 (configuration not stated),-0.153
13,O=C(NCc1ccco1)c1noc2c1CCCC2,-0.00444
14,COC(=O)c1ccccc1Oc1c(F)c(F)nc(N2CCOCC2)c1F,-0.674
15,COc1cccc(Nc2c(F)c(F)c(F)c(F)c2C(=O)O)c1,-0.326
16,CCOc1ccc(N(CC(=O)NC(C)(C)C)C(=O)c2ccco2)cc1,-0.0245
17,CC1CCc2sc(C(=O)N=Nc3c(O)[nH]c4ccccc34)cc2C1 (configuration not stated),0.647
18,CCCCCOC(=O)CSc1nc2c(c(=O)[nH]c(=O)n2C)n1CCc1ccccc1,-0.0691
19,CC12CC3(C)CC(C)(C1)CC(C(=O)NC1=NCCS1)(C2)C3,-0.201
20,C/C(=N\NS(=O)(=O)c1ccccc1)c1ccc2c(c1)OCCO2,-0.182
21,CCOC(=O)C1=C(C)NC2=C(C(=O)CCC2)C1c1cccnc1 (configuration not stated),-0.578
22,O=C(C1CC1)N1CCN(c2nc3ccccc3s2)CC1,-0.217
23,CCc1nc(N2CCCCC2)c2oc3ccccc3c2n1,-0.161

row,SMILES,z-score
1,Cc1cccc(C)c1NC(=O)CSc1ncnc2nc[nH]c12,0.206
2,CCSc1nc(O)cc(=O)n1-c1ccc(OC)cc1,-0.15
3,O=C(CSCc1ccc(Cl)cc1)N1CCCCC1,-0.424
4,Nc1nnc(SCc2ccc(Cl)cc2)s1,-0.195
5,Cc1ccc(-c2noc(CNc3ccccc3)n2)cc1,-0.0581
6,CCn1cc(CNC(=O)c2cc(-c3ccccc3OC)nc3ccccc23)c(C)n1,-1.03
7,CCCc1nc2c(C)cc(C)cc2c(N)c1CC,0.451
8,O=[n+]1c2c(n([O-])c3cc(Br)ccc31)CCCC2,0.682
9,CCCCc1nc(SCC(=O)Nc2cc(C)on2)n[nH]1,0.784
10,O=C(CCCCn1c(=O)c2ccccc2n(CC(=O)NC2CCCC2)c1=O)NC1CCCC1,-0.424
11,Cc1ccc2cc(C(c3nnnn3Cc3ccccc3)N3CCc4ccccc43)c(=O)[nH]c2c1C (configuration not stated),-0.173
12,COc1ccccc1C1CC(c2cccs2)=Nc2ccccc2S1 (configuration not stated),0.137
13,Cc1c(Cl)cccc1N(CC(=O)O)S(C)(=O)=O,-0.0663
14,Cc1cccc(C(=O)N2CCN(c3ncnc4c3cnn4-c3ccccc3)CC2)c1,-0.609
15,Cc1ccccc1NC(=O)c1onc2c1CCCC2,0.0884
16,CCN1CCn2c3c(c4cc(Cl)ccc42)CCCC31 (configuration not stated),0.093
17,CCS(=O)(=O)N1CCN(S(=O)(=O)c2ccccc2)CC1,0.446
18,Oc1ccccc1-c1nc(/C=C/c2ccccc2)nn1-c1ccccc1,-1.33
19,C=CCn1c(C)cc(C(=O)CSc2nc3ccccc3c(=O)[nH]2)c1C,-0.383
20,CC(NC(=O)/C=C/c1cnc2ccccc2n1)C12CC3CC(CC(C3)C1)C2 (configuration not stated),-0.0601
21,COCCn1c(=S)[nH]c2cc(C(=O)NC(C)C)ccc2c1=O,0.0406
22,Cn1c(CC2C(=O)Nc3ccc(Br)cc32)nc2ccccc2c1=O (configuration not stated),-0.0123
23,Cc1ccc2[nH]c(=O)c(-c3noc(C(C)C)n3)cc2c1,-0.0854

row,SMILES,z-score
1,CCN(CC)C(=O)COC(=O)c1cc(-c2ccc(OC)cc2)nc2ccccc12,-0.353
2,C=CCN1C(=O)C(O)(CC(=O)c2ccc(N)cc2)c2ccccc21 (configuration not stated),0.37
3,CCN(CC)CCn1c(NCc2ccccn2)nc2ccccc21,-0.287
4,O=C1NC(c2ccccc2)(C(F)(F)F)C(=O)N1Cc1cccnc1 (configuration not stated),0.162
5,CCNc1nc(NC(C)(C)C)nc(N(C#N)CC)n1,-0.694
6,N/C(Cc1ccccc1Sc1ccccc1)=N\O,0.173
7,O=C(NC(=S)NCC1CCCO1)c1ccccc1Br (configuration not stated),1.6
8,O=C(N1CCN(Cc2ccccc2)CC1)C12CC3CC(CC(C3)C1)C2,0.408
9,C=CCN(c1ccc(C(=O)NC(C)C)cc1)S(C)(=O)=O,0.0929
10,Cc1ccc(C)c(-n2c(Cc3cc(=O)[nH]c(=O)[nH]3)nnc2SCC(=O)NCC2CCCO2)c1 (configuration not stated),-0.284
11,CC1(c2cc(C(F)(F)F)n3nc(C(=O)O)cc3n2)CC1,0.169
12,Cc1c(C(=O)N2CCCC2)sc(NC(=O)c2ccc(Cl)cc2)c1C#N,-0.559
13,COc1ccc(CCNC(=O)Cc2cc(=O)[nH]c(=O)[nH]2)cc1OC,-0.0178
14,Cc1ccnc(SCCn2c(N3CCN(c4ccccc4)CC3)nc3c2c(=O)[nH]c(=O)n3C)n1,0.404
15,O=c1c2ccccc2c(/C=N/c2ncn[nH]2)c(O)n1Cc1ccccc1,-0.573
16,COc1ccc(OC(C)C(=O)N2CCN(c3ccccn3)CC2)cc1 (configuration not stated),-0.0836
17,COc1cc(Cl)c(C)cc1NC(=O)CSc1nc2ccccc2o1,-0.0204
18,O=C(NC1CCN(C(=S)NCc2ccco2)CC1)C12CC3CC(CC(C3)C1)C2,0.097
19,CCn1cc(C(=O)NCc2ccco2)c(=O)c2cc(S(=O)(=O)N3CCC(C)CC3)ccc21,-0.818
20,Cc1ccc2nc(-c3ccco3)c(Nc3ccccc3)n2c1,-0.0781
